This is one part of the list.
Assays:
Assay in all cases: glycan array binding signal (z-score within array); higher = stronger binding
Conditions in all cases: glycan notation: IUPAC condensed, linker removed; mutation: E227G
[1] = biological target: Neu5Ac(a2-6)Gal(b1-4)GlcNAc(b1-2)Man(a1-3)[GlcNAc(b1-4)][Neu5Ac(a2-6)Gal(b1-4)GlcNAc(b1-2)Man(a1-6)]Man(b1-4)GlcNAc(b1-4)GlcNAc
How it was run: (§1)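 The Consortium for Functional Glycomics database supplied 3228 glycan arrays, of which those lacking an available protein sequence were dropped. The binding signal, a within-array Z-score, was averaged across arrays of the same protein sequence and across linkers. Negative scores can be read as non-binding.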

[2] = biological target: Neu5Ac(a2-6)Gal(b1-4)GlcNAc(b1-2)Man(a1-3)[Man(a1-6)]Man(b1-4)GlcNAc(b1-4)GlcNAc
How it was run: as §1

[3] = biological target: Neu5Ac(a2-6)Gal(b1-4)GlcNAc(b1-2)Man(a1-3)[Neu5Ac(a2-3)Gal(b1-4)GlcNAc(b1-2)Man(a1-6)]Man(b1-4)GlcNAc(b1-4)GlcNAc
How it was run: as §1

[4] = biological target: Neu5Ac(a2-6)Gal(b1-4)GlcNAc(b1-2)Man(a1-3)[Neu5Ac(a2-6)Gal(b1-4)GlcNAc(b1-2)Man(a1-6)]Man(b1-4)GlcNAc(b1-4)GlcNAc
How it was run: as §1

[5] = biological target: Neu5Ac(a2-6)Gal(b1-4)GlcNAc(b1-2)Man(a1-3)[Neu5Ac(a2-6)Gal(b1-4)GlcNAc(b1-2)Man(a1-6)]Man(b1-4)GlcNAc(b1-4)[Fuc(a1-6)]GlcNAc
How it was run: as §1

[6] = biological target: Neu5Ac(a2-6)Gal(b1-4)GlcNAc(b1-2)Man(a1-6)Man(b1-4)GlcNAc(b1-4)GlcNAc
How it was run: as §1

[7] = biological target: Neu5Ac(a2-6)Gal(b1-4)GlcNAc(b1-2)Man(a1-6)[Gal(b1-4)GlcNAc(b1-2)Man(a1-3)]Man(b1-4)GlcNAc(b1-4)GlcNAc
How it was run: as §1

[8] = biological target: Neu5Ac(a2-6)Gal(b1-4)GlcNAc(b1-2)Man(a1-6)[GlcNAc(b1-2)Man(a1-3)]Man(b1-4)GlcNAc(b1-4)GlcNAc
How it was run: as §1

[9] = biological target: Neu5Ac(a2-6)Gal(b1-4)GlcNAc(b1-2)Man(a1-6)[Man(a1-3)]Man(b1-4)GlcNAc(b1-4)GlcNAc
How it was run: as §1

[10] = biological target: Neu5Ac(a2-6)Gal(b1-4)GlcNAc(b1-2)[Neu5Ac(a2-6)Gal(b1-4)GlcNAc(b1-4)]Man(a1-3)[GlcNAc(b1-4)][Neu5Ac(a2-6)Gal(b1-4)GlcNAc(b1-2)[Neu5Ac(a2-6)Gal(b1-4)GlcNAc(b1-6)]Man(a1-6)]Man(b1-4)GlcNAc(b1-4)GlcNAc
How it was run: as §1

[11] = biological target: Neu5Ac(a2-6)Gal(b1-4)GlcNAc(b1-2)[Neu5Ac(a2-6)Gal(b1-4)GlcNAc(b1-4)]Man(a1-3)[GlcNAc(b1-4)][Neu5Ac(a2-6)Gal(b1-4)GlcNAc(b1-4)Man(a1-6)]Man(b1-4)GlcNAc(b1-4)GlcNAc
How it was run: as §1

[12] = biological target: Neu5Ac(a2-6)Gal(b1-4)GlcNAc(b1-2)[Neu5Ac(a2-6)Gal(b1-4)GlcNAc(b1-6)]Man(a1-6)[Neu5Ac(a2-6)Gal(b1-4)GlcNAc(b1-2)Man(a1-3)][GlcNAc(b1-4)]Man(b1-4)GlcNAc(b1-4)GlcNAc
How it was run: as §1

[13] = biological target: Neu5Ac(a2-6)Gal(b1-4)GlcNAc(b1-3)Gal(b1-3)GlcNAc
How it was run: as §1

[14] = biological target: Neu5Ac(a2-6)Gal(b1-4)GlcNAc(b1-3)Gal(b1-4)GlcNAc
How it was run: as §1

[15] = biological target: Neu5Ac(a2-6)Gal(b1-4)GlcNAc(b1-3)Gal(b1-4)GlcNAc(b1-2)Man(a1-3)[Neu5Ac(a2-6)Gal(b1-4)GlcNAc(b1-3)Gal(b1-4)GlcNAc(b1-2)Man(a1-6)]GalNAc
How it was run: as §1

[16] = biological target: Neu5Ac(a2-6)Gal(b1-4)GlcNAc(b1-3)Gal(b1-4)GlcNAc(b1-3)Gal(b1-4)GlcNAc
How it was run: as §1

[17] = biological target: Neu5Ac(a2-6)Gal(b1-4)GlcNAc(b1-3)Gal(b1-4)GlcNAc(b1-3)Gal(b1-4)GlcNAc(b1-2)Man(a1-3)[Neu5Ac(a2-6)Gal(b1-4)GlcNAc(b1-3)Gal(b1-4)GlcNAc(b1-3)Gal(b1-4)GlcNAc(b1-2)Man(a1-6)]GalNAc
How it was run: as §1

[18] = biological target: Neu5Ac(a2-6)Gal(b1-4)GlcNAc(b1-3)Gal(b1-4)GlcNAc(b1-3)GalNAc
How it was run: as §1

[19] = biological target: Neu5Ac(a2-6)Gal(b1-4)GlcNAc(b1-3)Gal(b1-4)GlcNAc(b1-3)[Neu5Ac(a2-6)Gal(b1-4)GlcNAc(b1-3)Gal(b1-4)GlcNAc(b1-6)]GalNAc
How it was run: as §1

[20] = biological target: Neu5Ac(a2-6)Gal(b1-4)GlcNAc(b1-3)Gal(b1-4)GlcNAc(b1-6)[Gal(b1-3)]GalNAc
How it was run: as §1

[21] = biological target: Neu5Ac(a2-6)Gal(b1-4)GlcNAc(b1-3)Gal(b1-4)[Fuc(a1-3)]GlcNAc(b1-3)Gal(b1-4)[Fuc(a1-3)]GlcNAc
How it was run: as §1

[22] = biological target: Neu5Ac(a2-6)Gal(b1-4)GlcNAc(b1-3)GalNAc
How it was run: as §1

[23] = biological target: Neu5Ac(a2-6)Gal(b1-4)GlcNAc(b1-3)[Neu5Ac(a2-6)Gal(b1-4)GlcNAc(b1-6)]GalNAc
How it was run: as §1

[24] = biological target: Neu5Ac(a2-6)Gal(b1-4)GlcNAc(b1-6)GalNAc
How it was run: as §1

[25] = biological target: Neu5Ac(a2-6)Gal(b1-4)GlcNAc(b1-6)[Gal(b1-3)GlcNAc(b1-3)]Gal(b1-4)Glc
How it was run: as §1

[26] = biological target: Neu5Ac(a2-6)Gal(b1-4)GlcNAc(b1-6)[Gal(b1-3)]GalNAc
How it was run: as §1

[27] = biological target: Neu5Ac(a2-6)Gal(b1-4)GlcNAc6S
How it was run: as §1

[28] = biological target: Neu5Ac(a2-6)GalNAc
How it was run: as §1

[29] = biological target: Neu5Ac(a2-6)GalNAc(b1-4)GlcNAc
How it was run: as §1

[30] = biological target: Neu5Ac(a2-6)GalNAc(b1-4)GlcNAc6S
How it was run: as §1

B1: Epa1-NP-mutant-E227G (Candida glabrata), Q6VBJ0 (protein)
chain: MILNPALFLNKCVCIYTTLILLLLTNGGYATSSNDISLASKDPTTFPLGCSPDITTPKKGLSMELYSYDFRKKGSYPCWDAAYLDPNYPRTGYKSHRLLAKVDGVTGNINFYYHATKGCTPQLGHLPASYNYPKPLTMTNFTMLLYGYFRPKVTGFHTFTISADDLLFVNFGAGNAFDCCRRDSSADHFGNYQAYAIWGSKTAKDELTVHLDAGVYYPIRLFYNNRGYDGALSFTFKTESNENTVSDFSEYFFSLDDTEEGCPGLISYDSSCASVKTSKIIGIDYHTETPNENLVPITKTIYHLGIPCTGTTTTPLCGSGFYDPLANKCVTINTSSTSSVTKTTSHTTSKEVSFHSSISSQKTLIPKSIPSPYGPIKSQSIPTEMETSSEISSSEYAFSDVISTPSHSPYTKKHSSLNSSSYTSTVIHSLTSYSISQGIFSTSLSEQNITSKSSTDKFSTATSMSNNITQSSIIISQFSTNNENYTTTSMHTSSDKISTETLNNSISTTTSILFSNSSTILKNNTTIISSDKDTHYHPVNPTIVCSTNKTEIICASITQPSISNSNNHWSSSVLKFNSTTVRSTLPSSAGSNETSINVPFSSSTESNTSTSSTSTSNSKMVRSTLPSSAGSNETSISVPFSSSTESNTSTSSTSTSNSKMVRSTLPSSAGSNETSINVPFSSSTESNTSTSSTSTSNSKTVRSTPFSSAGIIMTSLSQRNNKSASSYASSNSKCYNTADSCRKVHSTPSYLLTSSYTSEGVDYDCSLVSTKLKINDTNCVNNKHTTKSCLKTSVTTTIPTLEIKTARKSSSNTIGLHSYPTSSPNKSISSAPIIGYISSFKTIKTASPSYQTSDLTTITTITSLNNPGSTAVENTHESNDKSRKTSSNDISSKHSVIKETKDAVESSNKSHQTNTLKCSSIIIASSSHNSYESLGGTTLTLTLSKVYSPQNNDTLPFLEISEVNPSRTVLPESSKMMQYLTSTEERNKTARNTIATNIVSISTFHFEGEGNAIRMGYTQLLLMLIGIIVMNIGT
[1]
  glycan array binding signal (z-score): -0.024
[2]
  glycan array binding signal (z-score): -0.18
[3]
  glycan array binding signal (z-score): -0.171
[4]
  glycan array binding signal (z-score): -0.125
[5]
  glycan array binding signal (z-score): -0.112
[6]
  glycan array binding signal (z-score): -0.193
[7]
  glycan array binding signal (z-score): -0.082
[8]
  glycan array binding signal (z-score): -0.195
[9]
  glycan array binding signal (z-score): -0.092
[10]
  glycan array binding signal (z-score): -0.153
[11]
  glycan array binding signal (z-score): -0.059
[12]
  glycan array binding signal (z-score): -0.074
[13]
  glycan array binding signal (z-score): 0.067
[14]
  glycan array binding signal (z-score): -0.099
[15]
  glycan array binding signal (z-score): -0.086
[16]
  glycan array binding signal (z-score): -0.305
[17]
  glycan array binding signal (z-score): 0.142
[18]
  glycan array binding signal (z-score): -0.24
[19]
  glycan array binding signal (z-score): -0.138
[20]
  glycan array binding signal (z-score): 0.021
[21]
  glycan array binding signal (z-score): -0.079
[22]
  glycan array binding signal (z-score): -0.079
[23]
  glycan array binding signal (z-score): -0.088
[24]
  glycan array binding signal (z-score): -0.04
[25]
  glycan array binding signal (z-score): -0.149
[26]
  glycan array binding signal (z-score): 0.171
[27]
  glycan array binding signal (z-score): 0.724
[28]
  glycan array binding signal (z-score): -0.279
[29]
  glycan array binding signal (z-score): -0.155
[30]
  glycan array binding signal (z-score): -0.214

Source: the supplement of paper PMC8728848
